# Reference: PubChem BioAssay AID2147 (National Center for Advancing Translational Sciences (NCATS), 2009)
# Hit rate of the full screen: of about 230,000 compounds, about 3,600 (1.6%) were called active. Inconclusive means that the source gave no clear call. Such entries were picked first, then a sample of the others. Calls follow the shape of the dose curve; as a rule, active = well fitted inhibition curve with a large enough effect (not every such curve was filed as active); inconclusive = small, poorly fitted or top-dose-only effect, or another doubt; inactive = no such curve, though single readings can be large or run the other way. Potencies of inconclusive entries are doubtful fits and often do not repeat.
# Target: Lysine-specific demethylase 4E (Homo sapiens) (UniProt B2RXH2)
# Assay: qHTS Assay for Inhibitors of Human Jumonji Domain Containing 2E (JMJD2E)
# Details: JMJD2E catalytic domain, FDH-coupled NADH fluorescence (FDH is formaldehyde dehydrogenase); series mostly up to 57.1 µM
# Also: nearly all actives have a fitted effect of over 50% in size.
# Potency is read from the fitted curve at half-maximal effect; tags tell the direction and shape of the fitted curve.
# Sequence of UniProt B2RXH2 (B2RXH2 whole entry, looked up, the tested form may be a part): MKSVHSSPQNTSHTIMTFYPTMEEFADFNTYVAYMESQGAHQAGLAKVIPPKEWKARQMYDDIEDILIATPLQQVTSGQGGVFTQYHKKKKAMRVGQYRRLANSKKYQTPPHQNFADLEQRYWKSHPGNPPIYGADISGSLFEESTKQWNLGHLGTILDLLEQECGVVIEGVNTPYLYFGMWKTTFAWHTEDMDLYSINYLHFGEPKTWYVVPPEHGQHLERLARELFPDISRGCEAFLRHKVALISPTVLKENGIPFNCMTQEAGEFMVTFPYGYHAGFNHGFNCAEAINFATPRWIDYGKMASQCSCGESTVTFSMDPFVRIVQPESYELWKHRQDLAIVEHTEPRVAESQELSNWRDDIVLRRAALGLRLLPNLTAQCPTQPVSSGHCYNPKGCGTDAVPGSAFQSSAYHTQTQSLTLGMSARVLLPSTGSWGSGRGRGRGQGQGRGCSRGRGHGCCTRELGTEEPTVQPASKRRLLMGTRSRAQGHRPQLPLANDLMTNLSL
row,SMILES,Potency
1,COc1ccc2[nH]c(=O)c(CN(C(=O)c3cccnc3)c3ccccc3OC)cc2c1,"inconclusive: 22.4 µM [inhibitor, partial curve]"
2,O=C(CSc1nc2ccccc2c(=O)n1-c1ccccc1Cl)Nc1cccc(S(=O)(=O)N2CCOCC2)c1,inactive
3,FC(F)(F)c1cc(-c2ccccc2)nc(NCC2CCCO2)n1 (stereo unspecified),"inconclusive: 39.8 µM [inhibitor, single point]"
4,COc1cc([N+](=O)[O-])cc(/C=N/NC(=O)CC#N)c1O,"inconclusive: 25.1 µM [inhibitor, single point]"
5,CC1(C)CC(=O)C(CC2=C(O)CC(C)(C)CC2=O)C(=O)C1,inactive
6,Cc1ccccc1NS(=O)(=O)c1cc(C(=O)NCCSC2CCCCC2)ccc1C,"inconclusive: 39.8 µM [inhibitor, single point]"
7,COc1ccc(C(=O)Nc2cc(OC)c(NC(=O)c3ccco3)cc2OC)cc1,"inconclusive: 35.5 µM [inhibitor, single point]"
8,Cc1cc(N2CCN(C)CC2)nc2ccc(NC(=S)NC3CC3)cc12,"inconclusive: 35.5 µM [inhibitor, single point]"
9,CCN(CC)c1ccc(C(=O)N/N=C(\C)c2ccc(O)cc2)cc1,inactive
10,CCCCCCNC(=O)c1c(O)c2cccc3c2n(c1=O)CCC3,"inconclusive: 28.2 µM [inhibitor, single point]"
11,O=C(Nc1cc(Cl)cc(Cl)c1)c1coc(=O)c(Br)c1,"inconclusive: 1.58 µM [inhibitor, partial curve]"
12,Cc1cccn2c(=O)c(/C=C(\C#N)C(=O)NCc3ccccc3)c(N3CCC(C(N)=O)CC3)nc12,"inconclusive: 0.708 µM [inhibitor, full curve]"
13,O=C(NNS(=O)(=O)c1ccc(Br)cc1)c1cccs1,inactive
14,Oc1ccc(/C=N/n2c3ccccc3c3ccccc32)cc1,inactive
15,Cc1ccc2nc(NCc3ccccc3)c(C=O)c(=O)n2c1,"inconclusive: 1.58 µM [inhibitor, partial curve]"
16,COc1ccc(S(=O)(=O)N2CN(Cc3ccco3)c3nc4ccccc4nc32)cc1,"inconclusive: 31.6 µM [inhibitor, partial curve]"
17,Cc1ncc([N+](=O)[O-])n1Cc1ccc(Br)cc1,inactive
18,O=C1c2ccccc2C(=O)c2cc(S(=O)(=O)Nc3ccccc3)ccc21,inactive
19,Cc1cc(C)n2nc(SCC(=O)N/N=C/c3ccccn3)nc2n1,"inconclusive: 39.8 µM [inhibitor, single point]"
20,O=C(Cn1ccc2ccccc2c1=O)NCC1COc2ccccc2O1 (stereo unspecified),"inconclusive: 39.8 µM [inhibitor, single point]"
21,O=C(N/N=C/c1cc(Br)ccc1O)C(=O)Nc1ccccc1OC(F)(F)C(F)F,"inconclusive: 31.6 µM [inhibitor, single point]"
22,CCn1c(O)c(C=Nc2ccccc2)sc1=O,"inconclusive: 5.01 µM [inhibitor, full curve, poor fit]"
23,CC(C)C(=O)Nc1c(O)c2ccccc2[nH]c1=O,"inconclusive: 15.8 µM [inhibitor, partial curve]"
24,COC(=O)NC(/C=C/c1ccccc1)C(C(C)=O)C(=O)OC (stereo unspecified),inactive

row,SMILES,Potency
1,OC(c1ccccc1)c1nc2ccccc2s1 (stereo unspecified),inactive
2,c1ccc(N2CCN(c3nc(NCc4ccco4)c4ccccc4n3)CC2)cc1,"inconclusive: 35.5 µM [inhibitor, single point]"
3,CCOc1cc(CNc2ccccc2)cc(Br)c1OCc1ccc(F)cc1,inactive
4,CCc1cccc(C)c1NC(=O)C1CCCO1 (stereo unspecified),inactive
5,O=C(Nc1ccc(-c2nc3ccccc3o2)c(O)c1)c1cc(-n2cnnc2)ccc1Cl,"inconclusive: 25.1 µM [inhibitor, partial curve]"
6,CN1CCc2nc3ccccc3c(C(=O)OCC(=O)N(CCC#N)c3ccccc3)c2C1,"inconclusive: 31.6 µM [inhibitor, partial curve]"
7,CCCn1c(N)c(C(=O)CSc2nc(C)cs2)c(=O)n(C)c1=O,inactive
8,COc1ccccc1NC(=O)C1CCN(c2ncccn2)CC1,"inconclusive: 35.5 µM [inhibitor, single point]"
9,COc1ccc(/C=N/Nc2cc(N3CCCC3)nc(N3CCCC3)n2)cc1,"inconclusive: 3.16 µM [inhibitor, partial curve]"
10,COc1ccc(-n2nc([N+](=O)[O-])c(=NCCc3ccc(C)cc3)n2O)cc1,inactive
11,NC(CCC(=O)N[C@@H](CS)C(=O)NCC(=O)O)C(=O)O (stereo partly specified),"inconclusive: 25.1 µM [inhibitor, partial curve]"
12,COc1ccc(NC(=O)c2cc3n(n2)C(C(F)(F)F)CC(c2ccc4c(c2)OCO4)N3)cc1OC (stereo unspecified),"inconclusive: 31.6 µM [inhibitor, single point]"
13,CSc1ccc(/C=N/NC(=O)c2sccc2C)cc1,"inconclusive: 25.1 µM [inhibitor, partial curve]"
14,CCOC(=O)c1ccc(NC(=O)CSc2nc(C)cc(=O)[nH]2)cc1,inactive
15,CN(C(=O)CSc1nnc(-c2ccc(F)cc2)c2ccccc12)C1CCS(=O)(=O)C1 (stereo unspecified),inactive
16,CC1(C)NC(=O)N(CC(O)COc2ccc(-c3ccc(C#N)cc3)cc2)C1=O (stereo unspecified),"inconclusive: 28.2 µM [inhibitor, partial curve]"
17,COc1ccc2c(c1)CCc1cn3nc(C)cc3nc1-2,"inconclusive: 28.2 µM [inhibitor, partial curve]"
18,Cc1ccc(C2=Nc3cccnc3C(c3ccccc3)=NN2)cc1,inactive
19,CCOC(=O)c1cnc2c(OC)cccc2c1N1CCN(c2ccc(OC)cc2)CC1,"inconclusive: 39.8 µM [inhibitor, single point]"
20,COc1ccc(/C=N\NC(=O)c2cccc([N+](=O)[O-])c2)cc1Cn1cc([N+](=O)[O-])cn1,inactive
21,CCOC(=O)CC1C(=O)NCCN1C(=O)c1cc2c(=O)n3ccccc3nc2s1 (stereo unspecified),"inconclusive: 3.16 µM [inhibitor, partial curve]"
22,Cc1cc(C)nc(S/C=C/C(=O)c2ccccc2F)n1,inactive
23,CC(=O)Nc1ccc(N2C(C(C)=O)=NN(c3ccc(Cl)cc3)C2c2sccc2C)cc1 (stereo unspecified),"inconclusive: 22.4 µM [inhibitor, single point]"
24,O=C(CCCn1c(=S)[nH]c2ccccc2c1=O)N1CCOCC1,inactive

row,SMILES,Potency
1,CCn1cc(C(=O)O)c(=O)c2cc(F)c(N3CCN(S(=O)(=O)c4ccc(Br)cc4)CC3)cc21,inactive
2,N#CC(C#N)=Cc1ccc(OC(=O)c2ccccn2)cc1,active: 17.8 µM
3,O=C(c1cccc(S(=O)(=O)NCCOc2ccccc2)c1)N1CCN(c2ncccn2)CC1,inactive
4,Cc1ccc(CN(C(=O)c2csnn2)C(C(=O)NC2CCCC2)c2ccc(C)o2)cc1 (stereo unspecified),inactive
5,N#CC1=C(N)SC(N)=C(C#N)C1c1cccc(O)c1,"inconclusive: 25.1 µM [inhibitor, single point]"
6,O=C(Nc1c(C(=O)O)[nH]c2ccccc12)NC1CCCCC1,"inconclusive: 25.1 µM [inhibitor, partial curve]"
7,COc1cc(NC(=S)Nc2ccc(OC(F)F)cc2)cc(OC)c1,"inconclusive: 7.94 µM [inhibitor, partial curve]"
8,O=C(O)c1cccc(N2C(=O)c3cccc(Oc4ccc(Cl)cc4)c3C2=O)c1,inactive
9,CCn1c(=O)c(C(=O)Nn2c(C)nc3ccccc3c2=O)c(O)c2ccccc21,"inconclusive: 35.5 µM [inhibitor, single point]"
10,O=[N+]([O-])c1ccc(Cl)c(/C=N/n2c(COc3ccccc3)n[nH]c2=S)c1,inactive
11,COc1ccc(C2C(C#N)=C(N)Oc3cc(N)ccc32)cc1OC (stereo unspecified),active: 12.6 µM
12,CCCc1cc(-c2n[nH]c(C)c2-c2ccc(C(=O)OCC)o2)c(O)cc1O,"inconclusive: 28.2 µM [inhibitor, partial curve]"
13,O=C(O)c1ccc(-c2ccccc2)[nH]c1=O,"inconclusive: 17.8 µM [inhibitor, partial curve]"
14,CCOc1ccccc1Oc1coc2cc(O)ccc2c1=O,"inconclusive: 31.6 µM [inhibitor, partial curve]"
15,CCc1nnc(NC(=O)c2cnccn2)s1,"inconclusive: 31.6 µM [inhibitor, single point]"
16,CC1(C)CC(=O)c2c(nc3ccccc3c2N)C1,"inconclusive: 22.4 µM [inhibitor, partial curve]"
17,O=C(CSc1cccc2cccnc12)Nc1ccc(S(=O)(=O)N2CCOCC2)cc1,"inconclusive: 0.708 µM [inhibitor, single point]"
18,c1ccc(CCNc2nc(-c3ccncc3)nc3ccccc23)cc1,"inconclusive: 35.5 µM [inhibitor, single point]"
19,Cc1nc(CS(=O)(=O)c2ccccn2)sc1C(=O)NNC(=O)c1ccccc1,"inconclusive: 35.5 µM [inhibitor, single point]"
20,COc1cccc2cc(C(=O)NCc3ccco3)c(=Nc3ccc(C(=O)O)cc3)oc12,"inconclusive: 28.2 µM [inhibitor, single point]"
21,O=C(NN1C(=O)c2ccccc2NC12CCCCC2)c1ccccc1,"inconclusive: 31.6 µM [inhibitor, partial curve]"
22,CC1(C)N([O-])C2=C(CCCC2)[N+]1=O,"inconclusive: 39.8 µM [inhibitor, single point]"
23,CCCCCCNC(=O)N[C@@H](C(=O)NCCC[C@H]1CN2C(=NC[C@@H]2Cc2ccccc2)N1CCc1cccc(OC)c1)C(C)C,"inconclusive: 39.8 µM [inhibitor, single point]"
